The values below come from the supplement of paper PMC10126150.

Sequences with one replicate were seen in a single cluster, so their values are uncertain.

The test system of this series is ATP. Nature of the series: switch fluorescence ratio, 500 uM ATP over buffer (Cy3 cluster intensity, sum of 5 cycles each) (fold (ratio)); higher = stronger signal-on switching upon ATP binding; sequences stand for … in TCGTCGGCAGCGTCAGATGTGTATAAGAGACAGTTTTTTTTTTTTTTTTTTTTTTTTT…TC. The conditions noted are these: aptamer strand: ATP DNA aptamer (quencher-CACCTGGGGGAGTATTGCGGAGGAAGG + anchor), 100 nM annealed; ATP concentration: 500 uM; one replicate. The method, boiled down: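 Between each of five buffer/ATP cycles, the flow-cell was stripped with NaOH and re-annealed. Each cycle imaged Cy3-labelled switching-strand clusters, annealed to 100 nM quencher-labelled ATP aptamer on a modified Illumina MiSeq flow-cell, first in selection buffer and then after 15 min with 500 uM ATP at 22 °C. The fluorescence ratio is summed target-cycle over summed buffer-cycle Cy3 intensity per cluster, averaged per switch-domain sequence, with clusters outside 100-1000 RFU excluded.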
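Further: ATP exposure 15 min at 22 °C before imaging.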

In the case of AGGTAAGGCA, the switch fluorescence ratio came out at 1.01.

Consider ATTGCCCGGT, for which the switch fluorescence ratio was 1.02.

In the case of TCTGGTACGG, the switch fluorescence ratio was determined as 1.02.

Turning to AAGGTACGGT, the switch fluorescence ratio worked out at 1.04.

With TTGGCTAATG, the switch fluorescence ratio worked out at 1.01.

Consider AAGCGCAAGG, for which the switch fluorescence ratio is 1.15.

Regarding AATCTCTCAG, the switch fluorescence ratio was found to be 1.01.

With CATCGAGTTA, the switch fluorescence ratio amounted to 0.957.

On to ACACTTCATT, for which the switch fluorescence ratio was determined as 1.04.

Turning to TCTTGGCACT, the switch fluorescence ratio turned out to be 1.

With TGTCATCACG, the switch fluorescence ratio is 0.996.

For TTTACATGGT, the switch fluorescence ratio was 0.97.

In the case of GTGTGGCC, the switch fluorescence ratio stood at 0.977.

With CTGATACGAT, the switch fluorescence ratio stood at 1.06.

CTGATCGACC: the switch fluorescence ratio is 1.21.

On to CTAGGCGGCC, for which the switch fluorescence ratio amounted to 0.971.

For GGGATTCCAC, the switch fluorescence ratio stood at 0.968.

ACCCAGTCAT: the switch fluorescence ratio was 1.01.

Turning to AGATAGTCTA, the switch fluorescence ratio is 1.03.

With TGCGCCTTAT, the switch fluorescence ratio was determined as 1.01.

In the case of TCGCTACGGG, the switch fluorescence ratio worked out at 1.02.

With CACGCCTTTA, the switch fluorescence ratio is 1.01.

Take GCAAGGCCGG: the switch fluorescence ratio was 1.01.

Consider CCACAAGCGC, for which the switch fluorescence ratio was determined as 1.31.

CCTAAGGTCA: the switch fluorescence ratio amounted to 1.01.

Turning to TAGATCAGCA, the switch fluorescence ratio was found to be 1.02.

With CAGTCAAGCT, the switch fluorescence ratio is 1.02.

For GTGAGAAAAA, the switch fluorescence ratio was 1.1.

With TTTAAGAAAA, the switch fluorescence ratio came to 1.03.

Regarding ACGCGACCGT, the switch fluorescence ratio was found to be 1.16.

For the sequence AGGTTTATGA, the switch fluorescence ratio came to 0.974.

For GCAGTTTCTG, the switch fluorescence ratio turned out to be 0.971.

With ACCTTAATAG, the switch fluorescence ratio turned out to be 1.02.

Take GGTCAGATTC: the switch fluorescence ratio was 0.973.

As for CTGAACATAG, the switch fluorescence ratio is 1.02.

As for ATACTGGATA, the switch fluorescence ratio was found to be 1.02.

GTTTGGCGTG: the switch fluorescence ratio was determined as 1.02.

GTCGCTGTG: the switch fluorescence ratio is 1.02.

As for TGATGGTATC, the switch fluorescence ratio is 0.99.

Take GTGTCAACAT: the switch fluorescence ratio is 0.995.

As to AATCCACAGC, the switch fluorescence ratio was 1.15.

TTTACTGGGA: the switch fluorescence ratio was found to be 1.01.

GATAACACGG: the switch fluorescence ratio was found to be 1.05.

For TGTTTGGTGA, the switch fluorescence ratio worked out at 0.994.

Regarding TACGGGGCGT, the switch fluorescence ratio was found to be 1.01.

Regarding TGGGGCTTAC, the switch fluorescence ratio worked out at 1.18.

As to GATTCTACTT, the switch fluorescence ratio is 1.06.

Regarding TGTCTCTCCG, the switch fluorescence ratio amounted to 1.17.

Consider TCACGCCGTT, for which the switch fluorescence ratio turned out to be 0.984.

Take AAGTATTGAC: the switch fluorescence ratio was determined as 1.06.

As for ATTTGTAACG, the switch fluorescence ratio was found to be 0.997.

Take GTCGCAGGTA: the switch fluorescence ratio was 0.991.

Consider ATTGATGTGT, for which the switch fluorescence ratio worked out at 1.03.

As for AGTTGATAAC, the switch fluorescence ratio was 0.932.

Take ACGTTCGCAC: the switch fluorescence ratio amounted to 1.8.

Take CTTCCCATGG: the switch fluorescence ratio was determined as 1.36.

In the case of CACCCGCCGT, the switch fluorescence ratio amounted to 1.06.

As for TTGAACTCTG, the switch fluorescence ratio is 0.972.

As to CGCCCGCAAC, the switch fluorescence ratio was 2.52.

Regarding CTATCTACAT, the switch fluorescence ratio worked out at 1.05.

Regarding TGTTACATGG, the switch fluorescence ratio was 0.897.

For AAGGTTTGAT, the switch fluorescence ratio was found to be 1.01.

GTCAGTAATA: the switch fluorescence ratio worked out at 1.07.

Regarding TTTCGTCT, the switch fluorescence ratio amounted to 1.09.

As to TCCCGGCAAC, the switch fluorescence ratio was 4.08.

As for CCGTTCCCCG, the switch fluorescence ratio was determined as 1.47.

With AATGAGAGAC, the switch fluorescence ratio came out at 1.03.

Take GTCCGGGGGA: the switch fluorescence ratio was 1.02.

For the sequence CGCATGTCA, the switch fluorescence ratio came to 1.14.

GAGCAGGACC: the switch fluorescence ratio was found to be 1.1.

On to GAAAGCCACA, for which the switch fluorescence ratio was found to be 1.03.

For GATCGGAGTT, the switch fluorescence ratio is 0.992.

As for TTAATAACCT, the switch fluorescence ratio was found to be 1.82.

Regarding CCAGCGATGG, the switch fluorescence ratio was 1.16.

As for ACGTACCGT, the switch fluorescence ratio was 1.6.

As to ACTCAGGGTC, the switch fluorescence ratio is 1.02.

For the sequence TCCTCAGCCA, the switch fluorescence ratio stood at 3.81.

On to CCGGGTTAA, for which the switch fluorescence ratio amounted to 1.06.

As for AAAATAAGCC, the switch fluorescence ratio was determined as 1.03.

Regarding ATGCAGTGGG, the switch fluorescence ratio stood at 1.06.

Take GGGCGCCCGT: the switch fluorescence ratio was found to be 1.

ACGGTTCAAG: the switch fluorescence ratio amounted to 0.973.

Turning to AGCGAAATGG, the switch fluorescence ratio was 1.11.

For the sequence TAGGGCGCA, the switch fluorescence ratio stood at 0.977.

Consider ATGTTCAGGT, for which the switch fluorescence ratio was 1.04.

Regarding TGGTGATGAG, the switch fluorescence ratio came to 1.02.

As for GGGCTAACGG, the switch fluorescence ratio turned out to be 1.02.

Turning to TGTATAATAC, the switch fluorescence ratio was found to be 2.52.

With GCGTTGTCAA, the switch fluorescence ratio was 1.02.

GTAATCGCAC: the switch fluorescence ratio is 1.17.

Regarding GGGCAGGGCT, the switch fluorescence ratio was 0.948.

In the case of GTGGCTCATG, the switch fluorescence ratio came out at 0.975.

For the sequence GCCTTAATGC, the switch fluorescence ratio came to 1.11.

Turning to TTGATAATTG, the switch fluorescence ratio is 0.997.

ATTGGTGTCA: the switch fluorescence ratio turned out to be 1.

As for AAGGCATCGG, the switch fluorescence ratio is 0.974.

For the sequence TGCGCAGAAT, the switch fluorescence ratio was found to be 0.968.

TACTAACAGG: the switch fluorescence ratio worked out at 1.26.

GTTCGCGGCC: the switch fluorescence ratio was found to be 1.11.

With ACGATGCGGC, the switch fluorescence ratio is 1.59.

Turning to GTCTCTAAGC, the switch fluorescence ratio was determined as 0.994.

Turning to AAGGGATTCA, the switch fluorescence ratio was determined as 0.929.

Take AAACAAAGTC: the switch fluorescence ratio came out at 1.06.

Turning to GTTTCCCTCA, the switch fluorescence ratio is 1.01.

As for AGACTTGTAT, the switch fluorescence ratio was found to be 0.993.

With CGTTGGGAT, the switch fluorescence ratio was found to be 1.

Take TTCGGCACAG: the switch fluorescence ratio was determined as 0.983.

For the sequence GTAGCTGGT, the switch fluorescence ratio is 1.04.

Turning to TTGAGATGAA, the switch fluorescence ratio was 1.06.

For TTTATCAAGG, the switch fluorescence ratio came to 0.985.

Consider GTAATGGAGT, for which the switch fluorescence ratio was found to be 1.03.

Turning to AAGCTATTGT, the switch fluorescence ratio came out at 0.972.

For the sequence GCTAGGGGAG, the switch fluorescence ratio is 0.986.

Consider AATGCTGCGT, for which the switch fluorescence ratio is 1.02.

Turning to TAATTGTTTA, the switch fluorescence ratio amounted to 0.998.

For the sequence AGGAAGTTAA, the switch fluorescence ratio amounted to 0.939.

Consider GCCCTTGCTG, for which the switch fluorescence ratio worked out at 0.944.

On to CGTCAATAGG, for which the switch fluorescence ratio amounted to 1.49.

For ATGTACCAGA, the switch fluorescence ratio is 1.06.

Consider TGACTACTGG, for which the switch fluorescence ratio was determined as 1.02.
